B1: hGLP-1-Fc-GlP (Ag) fusion protein: GLP-1 fused to GlP(Ag) (amino acids 1-42) via a hinge-CH2-CH3 Fc domain derived from IgG1; SEQ ID NO: 93 (protein)
chain: MEFGLSWVFLVAIIKGVQCHGEGTFTSDVSSYLEEQAAKEFIAWLVKGRG[letters of human IgG1 Fc with changes left out]IEGRMDYAEGTFISDYSIAMDKIHQQDFVNWLLAQKGKKNDWKHNITQ
B2: hGLP-1-Fc-GlP (AntPro3) fusion protein: GLP-1 fused to GlP(AntPro3) (amino acids 1-42, E3P) via a hinge-CH2-CH3 Fc domain derived from IgG1; SEQ ID NO: 95 (protein)
chain: MEFGLSWVFLVAIIKGVQCHGEGTFTSDVSSYLEEQAAKEFIAWLVKGRG[letters of human IgG1 Fc with changes left out]IEGRMDYAPGTFISDYSIAMDKIHQQDFVNWLLAQKGKKNDWKHNITQ

Experiments:
[1] = system: rat insulinoma INS-1 cells; assay: in vitro glucose-stimulated insulin secretion (GSIS) in INS-1 cells; assay type: cell-based; conditions: 1 hour glucose, then 2 hour incubation; ELISA
Text: X is a known inducer of GSIS.

[2] = Glucose tolerance test (GTT) model in HFD-fed mice; assay type: in vivo, mice (Male C57BL/6); conditions: i.v. treatment, 18 hours fast, 2 g/kg glucose, 15 min to 2 hours; for serum glucose following glucose administration: vs PBS control
Procedure: Cages were changed once, then changed once a week.
The mice administered the above treatment by i.v. injections. The mice were then fasted for 18 hours and administered a dose of 2 g/kg glucose by i.v. injections. Blood samples were drawn by tail clip bleeding at 15, 30 and 60 minutes post dosing and cardiac bleeding was used at 2 hours after glucose injection as end-point.

[3] = Longer-term obesity model in HFD-fed mice; conditions: for blood glucose levels: Days 0, 1, 10 and 15; for blood glucose levels / average daily food intake: compared to the untreated mice; for weights of individual mice: FIG. 8B; for plasma insulin levels on Day 15: FIG. 8C right panel; for plasma insulin levels on Day 1: between 15 and 120 minutes after treatment; for liver weight / subcutaneous white adipose tissue (sWAT) weight: day 19 terminal necropsy, vs PBS control; for decrease in collagen staining in comparison with tirzepatide or dulaglutide: picrosirius red liver sections; for change in body weight: tail vein dosing Day 0, 4, 7, 10, 14, 18, weighed every 2 days; for tolerability, clinical observations: tail vein dosing Day 0 to Day 18; for collagen staining (fibrosis), picrosirius red liver sections / hepatocellular ballooning and steatosis, H&E liver histology: vs vehicle-treated mice
Procedure: Mice (Male C57BL/6) were of approximately 13 weeks of age were housed 4 mice per cage. Following 2 weeks of acclimatation, mice were introduced to 60% kcal HFD (Research Diets D12492). Cages were changed once, then changed once a week. Weekly body weights and non-fasted blood glucose were collected.
Mice were injected by tail vein with vehicle or the drugs on Day 0, Day 4, Day 7, Day 10, Day 14, and Day 18. Body weights were measured every 2 days. Change in body weight was calculated and plotted.
Cumulative food intake was measured between day 0 and 3, between day 4 and 7, between day 7 and day 11, and between day 11 and day 14, and represented as average daily food intake. For food consumption, remaining food was weighed on days 3, 8, and 15, and subtracted from the starting weight. This value was then normalized to the number of mice in the cage, and the number of days the mice had access to the food prior to weighing.
Blood glucose levels were measured on Days 0, 1, 10 and 15 and plotted.
On day 19 during terminal necropsy, liver and subcutaneous white adipose tissue were recovered weighed from treated animals.
To further analyze the changes in liver, histopathological analysis was conducted. Briefly, the liver tissue was stained with hematoxylin and eosin (H&E) and evaluated using standard techniques.

| Molecule | insulin in the culture supernatant (GSIS) [1] | serum insulin following glucose administration [2] | serum glucose following glucose administration [2] | blood glucose levels [3] | weights of individual mice [3] | plasma insulin levels on Day 15 [3] | plasma insulin levels on Day 1 [3] | average daily food intake [3] | liver weight [3] | subcutaneous white adipose tissue (sWAT) weight [3] | decrease in collagen staining in comparison with tirzepatide or dulaglutide [3] | change in body weight [3] | tolerability, clinical observations [3] | collagen staining (fibrosis), picrosirius red liver sections [3] | hepatocellular ballooning and steatosis, H&E liver histology [3] |
| --- | --- | --- | --- | --- | --- | --- | --- | --- | --- | --- | --- | --- | --- | --- | --- |
| B1 | stimulated insulin production to a similar, if not greater magnitude than dulaglutide or tirzepatide | rapid induction of insulin | much smaller increase in serum glucose | decrease in blood glucose | induced weight loss | significant decrease in the levels of insulin | rapid decrease in insulin levels | decrease in food intake | livers of control mice that received only PBS were much heavier | decreased | greater decrease in collagen staining compared to the livers from mice treated with tirzepatide or dulaglutide | progressive weight loss | well tolerated and no overt toxicities were noted | decrease in collagen staining | decrease in hepatocellular ballooning and steatosis |
| B2 | – | rapid induction of insulin | much smaller increase in serum glucose | decrease in blood glucose | induced weight loss | significant decrease in the levels of insulin | rapid decrease in insulin levels | decrease in food intake | livers of control mice that received only PBS were much heavier | decreased | greater decrease in collagen staining compared to the livers from mice treated with tirzepatide or dulaglutide | progressive weight loss | well tolerated and no overt toxicities were noted | decrease in collagen staining | decrease in hepatocellular ballooning and steatosis |
